# The campaign covered roughly 310,000 compounds. About 18,000 (5.8%) were called active. Inconclusive means that the source gave no clear call. Such entries were picked first, then a sample of the others. The call rests on the fitted dose curve; in most records, active means well fitted inhibition curve with a large enough effect; inconclusive means small, poorly fitted or top-dose-only effect, or another doubt; inactive means no such curve, though single readings can be large or run the other way. No potency is given beside an inconclusive call; the fits are too rough.
# Assay: Primary qHTS for delayed death inhibitors of the malarial parasite plastid, 48 hour incubation
# Conditions: P. falciparum luciferase growth in erythrocytes; series mostly up to 28.7 µM
# Outline: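 Luciferase-expressing P. falciparum in infected erythrocytes (2% hematocrit, 0.1% parasitemia final) in RPMI 1640/0.5% Albumax were exposed to compound for 48 hours at 37 C, 5% CO2; growth read as luminescence.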
# Potency means the concentration at half of the fitted maximal effect; tags describe the fitted curve by direction and shape.
row,SMILES,Potency
1,COCCOC(=O)C1=C(C)Nc2cc(=O)[nH]c(=O)n2C1c1cccc([N+](=O)[O-])c1 (stereo not given),"inconclusive [inhibitor, single point]"
2,CC(=O)c1cccc(NC(=O)CN2C=NS(=O)(=O)c3ccc(C)cc32)c1,"inconclusive [inhibitor, single point]"
3,CC(C)(C)OC(=O)N1CCC(Cc2cc(-c3ccccc3)no2)(C(=O)O)CC1,inactive
4,CN(C)/C=C(\C#N)C(=O)Nc1ccc(O)cc1F,inactive
5,O=S(=O)(Nc1ccc2cn[nH]c2c1)c1ccc(C(F)(F)F)cc1,"inconclusive [inhibitor, partial curve]"
6,C=CCSc1n[nH]c2nc3c(c(=O)n12)C1(CCCC1)Cc1ccccc1-3,inactive
7,COc1ccc(C2CC(c3ccccc3)=NN2C(=O)COC(=O)/C=C/c2ccc(O)c(OC)c2)cc1 (stereo not given),active: 14.7 µM
8,CCOc1cc2c(cc1OCC)-n1cccc1C(c1ccccc1OC)NC2 (stereo not given),active: 10.4 µM
9,O=C(Cn1c(NCCCO)nc2ccccc21)c1ccc(Cl)cc1,"inconclusive [inhibitor, single point]"
10,CCOc1ccc(CCNC(=O)C2CCN(S(=O)(=O)N3CCOCC3)CC2)cc1OCC,"inconclusive [inhibitor, full curve]"
11,C[Si](C)(C)n1ccnc1,"inconclusive [inhibitor, partial curve]"
12,O=C(c1cccc(S(=O)(=O)N2CCOCC2)c1)N(CCc1ccccc1)Cc1ccccc1,"inconclusive [inhibitor, single point]"
13,O=C(N/N=C/c1ccccn1)c1cc(Br)ccc1O,"inconclusive [inhibitor, partial curve, poor fit]"
14,Cc1nc2ccccc2n1CC(O)COC1CCCCC1 (stereo not given),"inconclusive [inhibitor, single point]"
15,COCC(C)NC(=O)CSc1nc2nn(-c3ccccc3)c(=O)c-2c2n1CCCCC2 (stereo not given),"inconclusive [inhibitor, partial curve]"
16,Cc1cccc(C2C3=C(Nc4[nH]n(-c5ccccc5)c(=O)c42)c2ccccc2C3=O)c1 (stereo not given),"inconclusive [inhibitor, single point]"
17,CC(C)NCCCCOc1ccc(Br)cc1Cl,"inconclusive [inhibitor, partial curve, poor fit]"
18,COc1ccc(OC)c(C2Nc3c(Cl)ccc(C(=O)O)c3C3C=CCC32)c1 (stereo not given),inactive
19,Cc1cccc(NS(=O)(=O)c2ccccc2)n1,inactive
20,COc1ccc(NS(=O)(=O)c2ccc(NC(=S)NC(=O)/C=C/c3ccccc3)cc2)nn1,inactive
21,COc1ccc(C(CC(=O)c2ccc(C)cc2)C(C#N)C#N)cc1OC (stereo not given),active: 13.1 µM
22,CCN(CC)c1ccc(C(=S)NC2CCCCC2)cc1,"inconclusive [inhibitor, partial curve, poor fit]"
23,CN(CC(=O)Nc1cccc(F)c1)C(=O)c1cccc2ccccc12,"inconclusive [inhibitor, single point]"

row,SMILES,Potency
1,O=C(NCCc1ccc(Cl)cc1)Nc1ccc(F)cc1,active: 14.7 µM
2,CCOC(=O)c1c(CN2CCCCC2)n(C)c2cc(Br)c(OC)cc12,"inconclusive [inhibitor, partial curve]"
3,CCOc1ccc(CN2CCN(Cc3cccn3-c3nccs3)CC2CCO)cc1 (stereo not given),"inconclusive [inhibitor, single point]"
4,Cc1ccc(CN2C(=O)/C(=C\c3ccc(C(=O)NCc4cccnc4)cc3)Oc3ccccc32)cc1,"inconclusive [inhibitor, partial curve, poor fit]"
5,COc1ccc(OCC(=O)NNC(=O)c2cc3ccccc3o2)cc1,inactive
6,CCCCN(C)C(=S)Nc1ccc2nc3n(c(=O)c2c1)CCCCC3,inactive
7,Cc1nonc1OCCNc1ccc([N+](=O)[O-])cc1[N+](=O)[O-],inactive
8,CC1CCCCC12NC(=O)N(CC(=O)NCCc1ccc(S(N)(=O)=O)cc1)C2=O (stereo not given),"inconclusive [inhibitor, single point]"
9,Cc1ccc2nc(SC(C)C(=O)Nc3cccc([N+](=O)[O-])c3)[nH]c2c1 (stereo not given),"inconclusive [inhibitor, single point]"
10,COc1cnc(-c2ccccn2)nc1Oc1ccccc1,active: 11.7 µM
11,O=C(NCc1ccco1)C12CC3CC(CC(C3)C1)C2,"inconclusive [inhibitor, single point]"
12,CC(C)Oc1ccc(S(=O)(=O)N2CCCCC2)cc1NC(=O)CN1C(=O)NC(C)(c2ccccc2)C1=O (stereo not given),"inconclusive [inhibitor, partial curve]"
13,Cc1nc2ccc(NC(=O)N(C)c3ccccc3)cc2s1,inactive
14,CC(C)CN(C[C@@H](O)[C@H](Cc1ccccc1)NC(=O)O[C@H]1CO[C@H]2OCC[C@H]21)S(=O)(=O)c1ccc(N)cc1,"inconclusive [inhibitor, single point]"
15,O=C(CN(c1cccc(Cl)c1)S(=O)(=O)c1ccccc1)NN=C1CCCC1,"inconclusive [inhibitor, single point]"
16,CCN=C1S/C(=C/c2ccc(-c3ccc(F)cc3)o2)C(=O)N1CC,"inconclusive [inhibitor, partial curve, poor fit]"
17,O=C(C1CCN(S(=O)(=O)c2ccccc2)CC1)N1CCN(Cc2ccc3c(c2)OCO3)CC1,inactive
18,CC(C)OCCCN(C)C1CCN(S(=O)(=O)c2ccc(-c3cc(C(F)(F)F)no3)s2)CC1,active: 11.7 µM
19,Brc1ccc2[nH]c3c(NCc4ccccn4)ncnc3c2c1,"inconclusive [inhibitor, single point]"
20,CC1CC(O)(Cc2ccccc2)C(C)CN1C (stereo not given),inactive
21,Cc1ccc(S(=O)(=O)N2CCN(CC(=O)Nc3ccc([N+](=O)[O-])cc3)CC2)cc1C,"inconclusive [inhibitor, single point]"
22,CCN1CCN(CCCNC(=O)c2cc3c(s2)-c2ccccc2OC3)CC1,"inconclusive [inhibitor, single point]"

# Reference: PubChem BioAssay AID504832 (National Center for Advancing Translational Sciences (NCATS), 2011)
